± gives the standard deviation of the averaged measurements. The list shows a part of the results.

The test system of the test is PfAP2-LT AP2 domain (GST-tagged). Briefly: gcPBM binding intensity (ln(normalized median fluorescence intensity)); higher = stronger DNA binding. The gist of the method: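 GST-fused DNA-binding domains of P. falciparum, expressed in E. coli, were applied at about 25 μg on average for 1 h to an Agilent 4 × 180k array of primer-extended double-stranded 36-bp intergenic genomic probes and negative controls. Binding intensity is the highest Masliner-normalised natural-log median intensity across replicate spots of either probe orientation, measured with Alexa488 anti-GST antibody and a 488 nm scan.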
With “CCTTAAATAATATATTCACACAATATAACAAAAATT [CACACA_site4892]”, the “gcPBM binding intensity (ln)” value came out at 8.7 ± 0.38. For the sequence “AAAAAAAAAATTATATATATATCCCTTATTTTTTCT [TGCATGCA_negctrl_site151]”, the “gcPBM binding intensity (ln)” value amounted to 8.56 ± 0.61. “CATACACAGAAACACACACACATATATACATATATA [CACACA_site1094]”: the “gcPBM binding intensity (ln)” value was 9.98 ± 0.24. Turning to “TCATATATATTGAAATGTACTTATTTTTTCCTCATA [XGTACX_site6526]”, the “gcPBM binding intensity (ln)” value is 8.5 ± 0.48. Take “TTACAAATGTAGAAAAGTACATATAATAATAATTTA [XGTACX_site3044]”: the “gcPBM binding intensity (ln)” value was 8.67 ± 0.44. “ATGGATAATAATAAGTGTACACATATATTTAGAAGA [XGTACX_site244]”: the “gcPBM binding intensity (ln)” value was 9 ± 0.45. Consider “AAAAAAAAAAAAAGCACACACACATATGCGTATATA [CACACA_site953]”, for which the “gcPBM binding intensity (ln)” value was found to be 9.38 ± 0.33. In the case of TTTAAGCGTTCACTGCTGCACTTTTATGTTGTGACC, the “gcPBM binding intensity (ln)” value was found to be 9.12 ± 0.51. With “ATTTGTATAATAAGTTGTACAATTCTTACAATATAA [XGTACX_site4164]”, the “gcPBM binding intensity (ln)” value was determined as 8.55 ± 0.4. With “GGTAGAAAATCAGTTAAACACACACCGAAAAAAAAA [CACACA_site8934]”, the “gcPBM binding intensity (ln)” value stood at 9.32 ± 0.46. Regarding “TAAATATAACAGAATAATATGTGGATTAATAAATGA [CACACA_negctrl_site438]”, the “gcPBM binding intensity (ln)” value was 8.71 ± 0.49. As for “ATATAATATGTTGAATGTACTTAAAAAAATGTATCT [XGTACX_site5385]”, the “gcPBM binding intensity (ln)” value was 8.73 ± 0.37. For “AAAAAAAAAAAAAAAACACACATGTATACTAGAATA [CACACA_site7108]” the value was 8.94 ± 0.48; for “TTAAGTTACAATTCTCGTACACATTAAAAGAAAATT [XGTACX_site699]”, 8.57 ± 0.39; for “TATAAGAAATAAAACCTGATTATAAACCTGTAACCA [CACACA_negctrl_site1302]”, 8.63 ± 0.37. For “AAGGCAAACAGACACACACACATATATACCTATATA [CACACA_site7077]” the value was 9.64 ± 0.35; for “GTTATACACATTACATGTACAAAAGTTGCACTTCAT [XGTACX_site6023]”, 9.02 ± 0.5. For “GTTGCCATCATTTGGCGTACAGTCAAAACCAAATCT [XGTACX_site1398]”, the “gcPBM binding intensity (ln)” value came out at 8.56 ± 0.37.

In the case of “TATAACATAAAACACACACACATACATACACAAAAA [CACACA_site1804]”, the “gcPBM binding intensity (ln)” value worked out at 10.1 ± 0.15. Regarding “GTTATAAATAAATATACACACATATATAAAATACAT [CACACA_site7146]”, the “gcPBM binding intensity (ln)” value was 9.08 ± 0.37. “AAATTTTTTTTTTAATTTTTTATTTAAAAAAAATAT [TGCATGCA_negctrl_site174]”: the “gcPBM binding intensity (ln)” value was found to be 8.06 ± 0.46. Turning to “CGCTTTATTTATATATGTACATATATATATATATAC [XGTACX_site5012]”, the “gcPBM binding intensity (ln)” value came to 9.11 ± 0.35.

For “AAGAGCAACCAAATAGAAAAAGGAAAATAAAAGGAA [CACACA_negctrl_site100]”, the “gcPBM binding intensity (ln)” value amounted to 8.84 ± 0.69. Turning to “TCCTATTTTATATAATGTACATAAATATATTACATA [XGTACX_site2720]”, the “gcPBM binding intensity (ln)” value turned out to be 8.6 ± 0.43.

On to “TTTGTTCAATTTACATGTACAGATATAATCTAACAT [XGTACX_site370]”, for which the “gcPBM binding intensity (ln)” value is 8.84 ± 0.42. Take “TCTATTAAAACAAATTGTACTTATTGATAAAGAATA [XGTACX_site3645]”: the “gcPBM binding intensity (ln)” value was 8.21 ± 0.42. Take “ATTTTTATTTTATATACACACAATAATAATATAATA [CACACA_site4015]”: the “gcPBM binding intensity (ln)” value stood at 8.62 ± 0.36. Turning to “ATTATATTTTGTAAATGTACATTTATATATTTTGTA [XGTACX_site1226]”, the “gcPBM binding intensity (ln)” value came to 8.84 ± 0.4. For the sequence “AAAAAAAAAAAAAAAGCATGCACATATTATTTTTTT [TGCATGCA_site416]”, the “gcPBM binding intensity (ln)” value came out at 8.77 ± 0.26. To “ATTCATAAACGTGTGTTAATATGAATTTAAACATAA [XGTACX_negctrl_site213]” belongs 8.71 ± 0.46; to “ATATAAATAAAATATACACACATAAATATAACGACA [CACACA_site1637]”, 9.29 ± 0.42; to “ACGAAGATTTATCTTGCACACGCAAAAAAAAAAAAA [CACACA_site7933]”, 8.86 ± 0.46. As for “AACATTTCCTTTCTGTGTACATATAAACCCATCTAT [XGTACX_site2071]”, the “gcPBM binding intensity (ln)” value was found to be 8.9 ± 0.47. In the case of “TTTAAAAAAAAAAATACACACATAAAAATTTTCAAA [CACACA_site703]”, the “gcPBM binding intensity (ln)” value was determined as 8.55 ± 0.52. To “TTATTTAAAAAATTTTTAAATATACAAAAAAAAAAA [TGCATGCA_negctrl_site464]” belongs 8.03 ± 0.44. Take “TTAATAATTAATTATAGTACACATTTATATTAATAA [XGTACX_site190]”: the “gcPBM binding intensity (ln)” value was 8.34 ± 0.46. For “ATTATAAGAAGGGGGGGTACATAAATATAAATGTAT [XGTACX_site5624]” the value was 10 ± 0.31. “TTTAATTTTCGGTGTGCACACAACTATGAGTTTTTA [CACACA_site3034]”: the “gcPBM binding intensity (ln)” value amounted to 9.28 ± 0.33. Turning to “AATTGAATAAATTAAACATGCACAGATGTTCTATTT [TGCATGCA_site692]”, the “gcPBM binding intensity (ln)” value stood at 8.68 ± 0.42.

For “TACTGGTATCGATATAGTACATATAATATTATGTTA [XGTACX_site7490]”, the “gcPBM binding intensity (ln)” value amounted to 8.84 ± 0.36. To “AGGATTAAAAAAACATGTACGTATTTAAATATATTT [XGTACX_site8774]” belongs 8.79 ± 0.49. As for “TTTTTTTTTTTTTTTTTTTTTTTTTTTTTTTTTTTT [CACACA_negctrl_site104]”, the “gcPBM binding intensity (ln)” value was 8.74 ± 0.13. Take “GTATAAAAAAATAAAAGTACAAAAAAAAAAGACTGA [XGTACX_site186]”: the “gcPBM binding intensity (ln)” value amounted to 8.94 ± 0.57. In the case of “AAATAAAAAATATGAACACACATATATAACAAAATA [CACACA_site261]”, the “gcPBM binding intensity (ln)” value turned out to be 9.11 ± 0.52.

Values taken from the supplement of paper PMC11417369.
